From the supplement of paper PMC10126150
Values marked as one replicate rest on one cluster of the flow cell; about a third of the high ones do not repeat.

Each sequence was assayed on ATP (assay: switch fluorescence ratio, 500 uM ATP over buffer (Cy3 cluster intensity, sum of 5 cycles each) (fold (ratio)); higher = stronger signal-on switching upon ATP binding; sequences stand for … in TCGTCGGCAGCGTCAGATGTGTATAAGAGACAGTTTTTTTTTTTTTTTTTTTTTTTTT…TC). Conditions: aptamer strand: ATP DNA aptamer (quencher-CACCTGGGGGAGTATTGCGGAGGAAGG + anchor), 100 nM annealed; ATP concentration: 500 uM; one replicate.
Procedure, shortened: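 Clusters carrying Cy3-labelled switching strands on a modified Illumina MiSeq flow-cell were annealed to 100 nM quencher-labelled ATP aptamer and imaged in selection buffer. They were imaged again after 15 min with 500 uM ATP at 22 °C, over five buffer/ATP cycles with NaOH stripping and re-annealing in between. For each cluster, the fluorescence ratio is the summed Cy3 intensity of the target cycles divided by that of the buffer cycles, averaged per switch-domain sequence. Clusters outside 100-1000 RFU were left out.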
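Further: ATP exposure 15 min at 22 °C before imaging.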

Sequence	switch fluorescence ratio
AGAGGGCA	1.02
CTTAAGCCAG	1
AGATGGATCT	1.01
TCCTTGGGAC	1.01
ACCGCCGATG	1.22
GTGAGCTCAG	1.02
CTGAAAGAGA	0.983
CGTAGGAACA	1.04
TAATTCGTGA	1.01
ATAAGGTTCG	1.03
TCGTATCAGG	1
TTGGATTTT	0.966
TCAGGTGTAC	1.47
CGATGCTGAC	1.79
CTCCAAGTTA	1.14
CCTGTGCATT	4.48
AGAGGTGGTT	1.01
GAGCAGTAGG	1.04
CGAGAAAGGT	1.1
TTGTAAAAGC	1.05
GATCTCATCC	1.01
TTCTTTCGGC	1.03
CAACGAATGA	0.982
CCCGGGGCCT	0.951
TATGGCTTGA	0.982
CCACGGTCTG	1.09

Sequence	switch fluorescence ratio
TCCCCCTAGA	1.09
TTTATACCCT	1.04
CGCGCAGCTA	1.01
GAGTTATCAA	1.01
ATTGCTTTCG	1.01
GGTCGATGCT	1.01
CGTAACGTTT	0.968
CCTCAAAATG	1.08
GGTAGACTTA	1.01
TTTGGTCCGA	1.01
TCGGAAGACT	1.28
AATTAAAAA	0.999
CCCTGAGGCA	0.978
GGCTGATCAT	0.968
CTTCGATCGG	1
AAGGTGAGTG	0.99
GCACCATTAA	1.03
GAGCACACGG	1.05
CATCACTGTT	1.01
ATAGGAACCT	2.07
TTTCGAC	1.05
CGGATGAAGT	1.02
GCGGAACTCG	1.08
AATCACTCGC	1.02
TCGATGAAAA	0.982
CTATCCAAAC	1.21

Sequence	switch fluorescence ratio
TGCCGCTGAG	1.05
GCCGAGGCTT	1.04
CGGTTGTTA	0.919
AACAGGGTAC	1.01
GCGCGGATAA	1.06
CCTGCAGTCG	1.14
TTTCATTAAG	1.02
CCGACACCCC	1.41
CGAATTGTA	1.04
CTGAAGCCTC	3.24
CCTCTGAAAG	2.4
TATATCGGAT	1.02
CTAGTAAGTC	1.53
CGTAAATGCG	0.98
TGGGAACATT	1.01
GCGGGCACGA	0.982
ACTAGACTTA	1.09
CCTGCTAGGC	1.93
AAAAACTTAT	1.04
TAATCACGCT	1
CAAATCAAAG	0.978
TGTGTCGTTC	1.06
TGGGTTCAAA	0.995
AATATTAGTG	0.95
TAGATGAGGT	0.965
ATCACTGCC	1.18

Sequence	switch fluorescence ratio
TACAGGGTGT	1.07
GAAAAGAATA	1.03
AATATGGCCC	1.12
AAGAGAATAA	1.09
CGAACTCAGA	1.03
TGTAAGTGTT	0.95
CGCGGTGATA	1.02
AGTACCGAGT	1.05
CGAGCTTGCC	0.925
AAACACGTCG	1.02
CGCTGATTAC	3.51
GTTGTTATCT	0.986
CCGTCTTCAG	1.09
GATTATATTA	0.984
AAGCTGGGGT	1
AGATTAGGCT	0.94
ATTCGTGGCA	1.01
GCTGTGGCCG	1.01
TGGAACATCT	0.963
CCCACTATTG	1.01
CCCCCAGCAC	4.93
CTAACGCTTC	2.41
GGAGGGCTAC	1.04
